Experimental data as given in the RNAGym collection of RNA variant scans (doi:10.1101/gad.245936.114).
Variants at the floor of the assay are shown more often than the library holds them.

B1: tRNA (parent)
chain: CUCUCGGUAGCCAAGUUGGUUUAAGGCGCAAGACUUUAAUUUAUCACUACGAAAUCUUGAGAUCGGGCGUUCGACUCGCCCCCGGGAGAUUUUUUCCUCGAGCAA

Variants of: B1
Assay: nonsense suppression (GFP-seq) (ratio to wild type); higher = more function; SUP4oc tRNA, yeast GFP reporter sort-seq
In short: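 Yeast were grown in raffinose/galactose medium with 80 mg/L adenine, each strain bearing a genome-integrated ochre-suppressor tRNA variant from a ~3% random-mutation library, a galactose-driven GFP ochre reporter, and RFP. After sorting into GFP/RFP bins, every bin was sequenced on an Illumina platform at phred ≥30. The GFPSEQ value, a measure of nonsense suppression, is the weighted bin median GFP/RFP relative to the unmutated parent tRNA, using each variant's estimated cell share per bin as the weight. Only variants with ≥100 reads and ≥30 cells were included.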

CUCUCGGUAGCUAAGUUGGUUUGAGGCGCAAGACUUUAAUUUAUCACUACGAAAUCUUAAUAUCGGGCGUUCGACUCGCCCCCGGGAGAUUUUUUCCUCGAGCAA [C12U A23G G59A G61U] and CUCUCGGUAGCUAAGUUGGUUUAGGGCUCAAGACUUUAAUUUAUCACUACGAAAUCUUGAGAUCGGGCGUUCGACUCGCCCCCGGGAGAUUUUUUCCUCGAGCAA [C12U A24G G28U] cannot be ordered by nonsense suppression: ≤ 0.026 for the first, ≤ 0.026 for the second.

First: CUCUCGGUAGCUAAGUUGGUUUAGGGCGCAAGACUUUAAUUUAUCACUACGAAAUCUUGAGAUCGGGCGUUCGACGCGCCCCCGGGAGAUUUUUUCCUCGAGCAA [C12U A24G U76G]
Second: CUCUCGGUAGCUAAGUUGGUUUAUGGCGCAAGACUUUAAUUUAUCACUACGAAAUCUUGAGAUCGGGCGUUCGACUCGCCCCCGGGAGAUUUUUUCCUCGAGCAA [C12U A24U]
The nonsense suppression of the first is lower: ≤ 0.026 for the first, 0.118 for the second.

CUCUCGGUAGCUAAGUUGGUUUAUGGCGCAAGACUUUAAUUUAUCACUACGAAAUCUUGAGAUCGGGCGUUCGACUCGCCCCGGGGAAAUUUUUUCCUCGAGCAA [C12U A24U C83G G88A] and CUCUCGGUAGCUAAGUUGGUUUAUGGCGCAAGACUUUAAUUUAUCACUACGAAAUCUUGAGAUCGGCCGUUCGACUCGCCCCCGGGAGAUUUUUUCCUCGAGCAA [C12U A24U G67C] cannot be ordered by nonsense suppression: ≤ 0.026 for the first, ≤ 0.026 for the second.

CUCUCGGUAGCUAAGUUGGUUUAUGGCGCAAGACUUUAAUUUAUCACUACGAAAUCUUGAGAUCGGGCGUGCGACUCGCCCCCGGGAGAUUUUUUCCUCGAGCAA [C12U A24U U71G] and CUCUCGGUAGCUAAGUUGGUUUAAGGCGCCAGACUUUAAUUUAUCACUACGAAAUCUUGAGAUCGGGCGUUCGACUCGCCCCCGGGAGAUUUUUUCCUCGAGCAA [C12U A30C] cannot be ordered by nonsense suppression: ≤ 0.026 for the first, ≤ 0.026 for the second.

CUCUCGGUAGCUAAGUUGGUUUAAGGCGCAGGACUUUAAUUUAUCACUACGAAAUCUUGAGAUCAGGCGUUCGACUCGCCCCCGGGAGAUUUUUUCCUCGAGCAA [C12U A31G G65A] and CUCUCGGUAGCUAAGUUGGUUUAAGGCGCAUGACUUUAAUUUAUCACUACGAAAUCUUGAGAUCGGGCGUUCGACUCGCCCACGGGAGAUUUUUUCCUCGAGCAA [C12U A31U C82A] cannot be ordered by nonsense suppression: ≤ 0.026 for the first, ≤ 0.026 for the second.

CUCUCGGUAGCUAAGUUGGUUUAAGGCGCAUGACUUUAAUUUAUCACUACGAAAUCUUGAGACCAGGCGUUCGACUCGCCCCCGGGAGAUUUUUUCCUCGAGCAA [C12U A31U U63C G65A] and CUCUCGGUAGCUAAGUUGGUUUAAGGCGCAAGCCUUUAAUUUAUCACUACGAAAUCUUGAGAGCGGGCGUUCGACUCGCCCCCGGGAGAUUUUUUCCUCGAGCAA [C12U A33C U63G] cannot be ordered by nonsense suppression: ≤ 0.026 for the first, ≤ 0.026 for the second.

CUCUCGGUAGCUAAGUUGGUUUAAGGCGCAAGGCUUUAAUUUAUCACUACGAAAUCCUGAGAUCGGGCGUUCGACUCGCCCCCGGGAGAUUUUUUCCUCGAGCAA [C12U A33G U57C] and CUCUCGGUAGCUAAGUUGGUUUAAGGCGCAAGGCUUUAAUUUAUCACUACGAAAUCGUGAGAUCGGGCGUUCGGCUCGCCUCCGGGAGAUUUUUUCCUCGAGCAA [C12U A33G U57G A74G C81U] cannot be ordered by nonsense suppression: ≤ 0.026 for the first, ≤ 0.026 for the second.

First: CUCUCGGUAGCUAAGUUGGUUUAAGGCGCAAGUCUUUAAUUUAUCACUACGAAAUCUUGAGAUCGGGCGUUCGACUCGCCCCCGGGAGAUUUUUUCCUCGAGCAA [C12U A33U]
Second: CUCUCGGUAGCUAAGUUGGUUUAAGGCGCAAGACUUUAAUUUAUCACUACGAAAUCUUGUGAUCGGGCGUUCGACUCGCCCCCGGGAGAUUUUUUCCUCGAGCAA [C12U A60U]
The nonsense suppression of the first is lower: ≤ 0.026 for the first, 0.723 for the second.

CUCUCGGUAGCUAAGUUGGUUUAAGGCGCAAGACUUUAAUUUAUCACUACGAAAUCUUGUGAUCGGGCGUUCGACUCGCACCCGGCAGAUUUUUUCCUCGAGCAA [C12U A60U C80A G86C] and CUCUCGGUAGCUAAGUUGGUUUAAGGCGCAAGACUUUAAUUUAUCACUACGAAAUCUUGAGAUCGGGCGUUCGACUCGCCCCCGGGCGAUUUUUUCCUCGAGCAA [C12U A87C] cannot be ordered by nonsense suppression: ≤ 0.026 for the first, ≤ 0.026 for the second.

CUCUCGGUAGCUAAGUUGGUUUAAGGUGCGCGACUUUAAUUUAUCACUACGAAAUCUUGAGAUCGGGCGUUCGACUCGCCCCCGGGAGAUUUUUUCCUCGAGCAA [C12U C27U A30G A31C] and CUCUCGGUAGCUAAGUUGGUUUAAGGUGCAAGACUUUAAUUUAUCACUACGAAAUCUUGACAUCGGGCGUUCGACUCGCCCCCGGGAGAUUUUUUCCUCGAGCAA [C12U C27U G61C] cannot be ordered by nonsense suppression: ≤ 0.026 for the first, ≤ 0.026 for the second.

CUCUCGGUAGCUAAGUUGGUUUAAGGCGCAAGACUUUAAUUUAUCACUACGAAAUGUUGAGAUCGGGCGUUCGACUCGCCCCCGGGAGAUUUUUUCCUCGAGCAA [C12U C56G] and CUCUCGGUAGCUAAGUUGGUUUAAGGCGCAAGACUUUAAUUUAUCACUACGAAAUUUUGAGAUCGGGCGUUCGACUCGCCCCCGGGAGAUUUUUUCCUCGAGCAA [C12U C56U] cannot be ordered by nonsense suppression: ≤ 0.026 for the first, ≤ 0.026 for the second.

CUCUCGGUAGCUAAGUUGGUUUAAGGCGCAAGACUUUAAUUUAUCACUACGAAAUCUUGAGAUCGGGCGUUGGACUCGCCCCCGGGAGAUUUUUUCCUCGAGCAA [C12U C72G] and CUCUCGGUAGCUAAGUUGGUUUAAGGCGCAAGACUUUAAUUUAUCACUACGAAAUCUUGAGAUCGGGCGUUCGACUUGCCCCCGGGAGAUUUUUUCCUCGAGCAA [C12U C77U] cannot be ordered by nonsense suppression: ≤ 0.026 for the first, ≤ 0.026 for the second.

Compared with CUCUCGGUAGCUAAGUUGGUUUAAGGCGCAAGACUUUAAUUUAUCACUACGAAAUCUUGAGAUCGGGCGUUCGACUCGUCCCCGGGAGAUUUUUUCCUCGAGCAA [C12U C79U], CUCUCGGUAGCUAAGUUGGUUUAAGGCGCAAGACUUUAAUUUAUCACUACGAAAUCUUGAGAUCGGGCGUUCGACUCGCACCCGGGAGAUUUUUUCCUCGAGCAA [C12U C80A] is lower in nonsense suppression: 0.205 for the first, ≤ 0.026 for the second.

Variant CUCUCGGUAGCUAAGUUGGUUUAAGGCGCAAGACUUUAAUUUAUCACUACGAAAUCUUGAGAUCGGGCGUUCGACUCGCCACCGGGAGAUUUUUUCCUCGAGCAA [C12U C81A] has a nonsense suppression of 0.0405.
